For this experiment, the system named is NCI-H322M lung. The experiment is described as follows: inhibition of tumour cell growth, NCI panel, 48 h.

This is an account of results in PubChem BioAssay (NCI).

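Assay format: 96-well plates, 48-hour exposure. Here, GI50 denotes the concentration required for 50% inhibition of growth. TGI marks complete inhibition of growth.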 Bounds are passed on as bounds.

Regarding `Oc1ccc(CSc2nnc(-c3ccncc3)o2)c2cccnc12`, the GI50 is 3.13 µM and the TGI is greater than 100 µM.
For `CCN(CC)c1ccc(NC2=C(Cl)C(=O)c3nc(C)ccc3C2=O)cc1`, in that order: 14.8 µM and 28.9 µM.
